Assay results published in the supplement of paper PMC9151546.
Most values come without repeats; read them as rough.

Columns and labels:
CHO-K1 [1] = assay: micronucleus frequency (% of nucleated events); higher = more micronuclei (genotoxic)
CHO-K1 [2] = assay: hypodiploid nuclei frequency (% of nucleated events); higher = more hypodiploid events (aneugenic)
Protocol: (§1)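 Flow-cytometric in vitro micronucleus assay (Litron MicroFlow) in CHO-K1 cells in 96-well plates, 19 concentrations (4.5-200 µM, n=1 per concentration). Without S9, cells were exposed for 24 h and sampled at 48 h. With Aroclor 1254-induced rat liver S9, cells were exposed for 3-4 h and sampled at 27-28 h. Read-outs are %MN and %hypodiploid nuclei relative to nucleated events, and relative survival as the nuclei-to-bead ratio versus the 1% DMSO vehicle control (x100).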

CHO-K1 [3] = assay: relative survival (nuclei to bead ratio vs DMSO control) (% of vehicle control); higher = more surviving cells
Protocol: as §1
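Wherever hypodiploid nuclei frequency (% of nucleated events) is given: hypodiploid nuclei gated on a flow cytometer with 488 nm excitation after SYTOX Green staining, cultures at 37 °C, positive controls vinblastine without S9 and cyclophosphamide with S9.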
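Wherever micronucleus frequency (% of nucleated events) is given: cells lysed with nuclei stained by SYTOX Green, then micronucleus-gated events counted against nucleated events by flow cytometry with 488 nm excitation.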
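Wherever relative survival (nuclei to bead ratio vs DMSO control) is given: Lysed-cell nuclei stained with SYTOX Green and counted against counting beads by flow cytometry at 488 nm excitation, with vinblastine (no S9) and cyclophosphamide (plus S9) as positive controls.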

Clc1cccc(Cl)c1Cl [1,2,3-Trichlorobenzene]
Conditions	hypodiploid nuclei frequency, CHO-K1 [2] [%]	micronucleus frequency, CHO-K1 [1] [%]	relative survival, CHO-K1 [3]
concentration: 4.5 (µM), S9 metabolic activation: with S9, exposure time: 3-4 hours	0.28	1.44	109
concentration: 4.5 (µM), S9 metabolic activation: without S9, exposure time: 24 hours	0.48	1.66	120
concentration: 5.63 (µM), S9 metabolic activation: with S9, exposure time: 3-4 hours	0.3	1.32	109
concentration: 5.63 (µM), S9 metabolic activation: without S9, exposure time: 24 hours	0.3	1.76	109
concentration: 7.04 (µM), S9 metabolic activation: with S9, exposure time: 3-4 hours	0.2	1.82	128
concentration: 7.04 (µM), S9 metabolic activation: without S9, exposure time: 24 hours	0.4	1.44	118
concentration: 8.8 (µM), S9 metabolic activation: with S9, exposure time: 3-4 hours	0.18	1.64	112
concentration: 8.8 (µM), S9 metabolic activation: without S9, exposure time: 24 hours	0.6	1.64	109
concentration: 11 (µM), S9 metabolic activation: with S9, exposure time: 3-4 hours	0.36	1.78	101
concentration: 11 (µM), S9 metabolic activation: without S9, exposure time: 24 hours	0.52	2	106
concentration: 13.7 (µM), S9 metabolic activation: with S9, exposure time: 3-4 hours	0.3	1.82	97.6
concentration: 13.7 (µM), S9 metabolic activation: without S9, exposure time: 24 hours	0.46	1.46	114
concentration: 17.2 (µM), S9 metabolic activation: with S9, exposure time: 3-4 hours	0.32	1.56	113
concentration: 17.2 (µM), S9 metabolic activation: without S9, exposure time: 24 hours	0.68	1.3	105
concentration: 21.5 (µM), S9 metabolic activation: with S9, exposure time: 3-4 hours	0.22	1.32	109
concentration: 21.5 (µM), S9 metabolic activation: without S9, exposure time: 24 hours	0.66	1.3	144
concentration: 26.8 (µM), S9 metabolic activation: with S9, exposure time: 3-4 hours	0.38	1.94	114
concentration: 26.8 (µM), S9 metabolic activation: without S9, exposure time: 24 hours	0.56	1.58	84.4
concentration: 33.6 (µM), S9 metabolic activation: with S9, exposure time: 3-4 hours	0.42	1.96	110
concentration: 33.6 (µM), S9 metabolic activation: without S9, exposure time: 24 hours	0.72	1.68	136
concentration: 41.9 (µM), S9 metabolic activation: with S9, exposure time: 3-4 hours	0.52	1.66	111
concentration: 41.9 (µM), S9 metabolic activation: without S9, exposure time: 24 hours	0.58	1.26	117
concentration: 52.4 (µM), S9 metabolic activation: with S9, exposure time: 3-4 hours	0.38	1.76	116
concentration: 52.4 (µM), S9 metabolic activation: without S9, exposure time: 24 hours	0.82	1.7	107
concentration: 65.5 (µM), S9 metabolic activation: with S9, exposure time: 3-4 hours	0.32	1.82	141
concentration: 65.5 (µM), S9 metabolic activation: without S9, exposure time: 24 hours	0.9	1.64	106
concentration: 81.9 (µM), S9 metabolic activation: with S9, exposure time: 3-4 hours	0.24	1.68	112
concentration: 81.9 (µM), S9 metabolic activation: without S9, exposure time: 24 hours	0.86	1.76	92.8
concentration: 102 (µM), S9 metabolic activation: with S9, exposure time: 3-4 hours	0.32	1.68	116
concentration: 102 (µM), S9 metabolic activation: without S9, exposure time: 24 hours	0.78	1.54	95.9
concentration: 128 (µM), S9 metabolic activation: with S9, exposure time: 3-4 hours	0.2	2.1	123
concentration: 128 (µM), S9 metabolic activation: without S9, exposure time: 24 hours	1.16	2.6	113
concentration: 160 (µM), S9 metabolic activation: with S9, exposure time: 3-4 hours	0.28	1.6	118
concentration: 160 (µM), S9 metabolic activation: without S9, exposure time: 24 hours	1.08	2.2	90.6
concentration: 200 (µM), S9 metabolic activation: with S9, exposure time: 3-4 hours	0.28	1.94	129
concentration: 200 (µM), S9 metabolic activation: without S9, exposure time: 24 hours	1.38	2.46	86.7

Clc1cc(Cl)c(Cl)cc1Cl [1,2,4,5-Tetrachlorobenzene]
Conditions	hypodiploid nuclei frequency, CHO-K1 [2] [%]	micronucleus frequency, CHO-K1 [1] [%]	relative survival, CHO-K1 [3]
concentration: 4.5 (µM), S9 metabolic activation: with S9, exposure time: 3-4 hours	0.08	0.74	81
concentration: 4.5 (µM), S9 metabolic activation: without S9, exposure time: 24 hours	0.5	1.54	122
concentration: 5.63 (µM), S9 metabolic activation: with S9, exposure time: 3-4 hours	0.1	0.92	88.2
concentration: 5.63 (µM), S9 metabolic activation: without S9, exposure time: 24 hours	0.46	1.24	132
concentration: 7.04 (µM), S9 metabolic activation: with S9, exposure time: 3-4 hours	0.08	0.8	81.6
concentration: 7.04 (µM), S9 metabolic activation: without S9, exposure time: 24 hours	0.32	1.06	134
concentration: 8.8 (µM), S9 metabolic activation: with S9, exposure time: 3-4 hours	0.14	0.94	103
concentration: 8.8 (µM), S9 metabolic activation: without S9, exposure time: 24 hours	0.4	1.2	156
concentration: 11 (µM), S9 metabolic activation: with S9, exposure time: 3-4 hours	0.24	0.88	88.6
concentration: 11 (µM), S9 metabolic activation: without S9, exposure time: 24 hours	0.44	1.32	137
concentration: 13.7 (µM), S9 metabolic activation: with S9, exposure time: 3-4 hours	0.28	0.84	93.3
concentration: 13.7 (µM), S9 metabolic activation: without S9, exposure time: 24 hours	0.2	1.12	171
concentration: 17.2 (µM), S9 metabolic activation: with S9, exposure time: 3-4 hours	0.24	0.86	86.8
concentration: 17.2 (µM), S9 metabolic activation: without S9, exposure time: 24 hours	0.38	1.32	147
concentration: 21.5 (µM), S9 metabolic activation: with S9, exposure time: 3-4 hours	0.3	0.86	91.9
concentration: 21.5 (µM), S9 metabolic activation: without S9, exposure time: 24 hours	0.5	1.06	134
concentration: 26.8 (µM), S9 metabolic activation: with S9, exposure time: 3-4 hours	0.1	0.74	71.9
concentration: 26.8 (µM), S9 metabolic activation: without S9, exposure time: 24 hours	0.46	2.16	140
concentration: 33.6 (µM), S9 metabolic activation: with S9, exposure time: 3-4 hours	0.18	0.88	75.9
concentration: 33.6 (µM), S9 metabolic activation: without S9, exposure time: 24 hours	0.62	1.46	136
concentration: 41.9 (µM), S9 metabolic activation: with S9, exposure time: 3-4 hours	0.1	0.64	98
concentration: 41.9 (µM), S9 metabolic activation: without S9, exposure time: 24 hours	0.44	1.2	153
concentration: 52.4 (µM), S9 metabolic activation: with S9, exposure time: 3-4 hours	0.12	0.42	93.8
concentration: 52.4 (µM), S9 metabolic activation: without S9, exposure time: 24 hours	0.42	1.42	124
concentration: 65.5 (µM), S9 metabolic activation: with S9, exposure time: 3-4 hours	0.2	0.7	74.8
concentration: 65.5 (µM), S9 metabolic activation: without S9, exposure time: 24 hours	0.52	1.58	145
concentration: 81.9 (µM), S9 metabolic activation: with S9, exposure time: 3-4 hours	0.1	0.7	101
concentration: 81.9 (µM), S9 metabolic activation: without S9, exposure time: 24 hours	0.58	1.44	157
concentration: 102 (µM), S9 metabolic activation: with S9, exposure time: 3-4 hours	0.3	1.22	86.6
concentration: 102 (µM), S9 metabolic activation: without S9, exposure time: 24 hours	0.72	1.48	143
concentration: 128 (µM), S9 metabolic activation: with S9, exposure time: 3-4 hours	0.18	0.74	98.6
concentration: 128 (µM), S9 metabolic activation: without S9, exposure time: 24 hours	0.5	2.04	157
concentration: 160 (µM), S9 metabolic activation: with S9, exposure time: 3-4 hours	0.2	0.86	94.1
concentration: 160 (µM), S9 metabolic activation: without S9, exposure time: 24 hours	1.08	1.78	129
concentration: 200 (µM), S9 metabolic activation: with S9, exposure time: 3-4 hours	0.1	0.82	81.6
concentration: 200 (µM), S9 metabolic activation: without S9, exposure time: 24 hours	1	2.24	121

O=c1[nH]sc2ccccc12 [1,2-Benzisothiazolin-3-one]
Conditions	hypodiploid nuclei frequency, CHO-K1 [2] [%]	micronucleus frequency, CHO-K1 [1] [%]	relative survival, CHO-K1 [3]
concentration: 4.5 (µM), S9 metabolic activation: with S9, exposure time: 3-4 hours	0.25	0.88	93.6
concentration: 4.5 (µM), S9 metabolic activation: without S9, exposure time: 24 hours	0.8	2.08	83
concentration: 5.63 (µM), S9 metabolic activation: with S9, exposure time: 3-4 hours	0.06	1.44	77.5
concentration: 5.63 (µM), S9 metabolic activation: without S9, exposure time: 24 hours	0.82	2.78	88.7
concentration: 7.04 (µM), S9 metabolic activation: with S9, exposure time: 3-4 hours	0.18	0.88	96.3
concentration: 7.04 (µM), S9 metabolic activation: without S9, exposure time: 24 hours	0.94	2.94	71.7
concentration: 8.8 (µM), S9 metabolic activation: with S9, exposure time: 3-4 hours	0.29	1.83	64.5
concentration: 8.8 (µM), S9 metabolic activation: without S9, exposure time: 24 hours	0.9	3.16	62.1
concentration: 11 (µM), S9 metabolic activation: with S9, exposure time: 3-4 hours	0.14	1.12	77.3
concentration: 11 (µM), S9 metabolic activation: without S9, exposure time: 24 hours	1.5	3.28	64.9
concentration: 13.7 (µM), S9 metabolic activation: with S9, exposure time: 3-4 hours	0.21	2.25	71.7
concentration: 13.7 (µM), S9 metabolic activation: without S9, exposure time: 24 hours	–	–	22
concentration: 17.2 (µM), S9 metabolic activation: with S9, exposure time: 3-4 hours	0.11	1.56	70.8
concentration: 17.2 (µM), S9 metabolic activation: without S9, exposure time: 24 hours	1.08	3.26	48.2
concentration: 21.5 (µM), S9 metabolic activation: with S9, exposure time: 3-4 hours	0.35	2.19	82.6
concentration: 21.5 (µM), S9 metabolic activation: without S9, exposure time: 24 hours	0.87	2.59	45.2
concentration: 26.8 (µM), S9 metabolic activation: with S9, exposure time: 3-4 hours	0.37	1.61	56.9
concentration: 26.8 (µM), S9 metabolic activation: without S9, exposure time: 24 hours	–	–	32
concentration: 33.6 (µM), S9 metabolic activation: with S9, exposure time: 3-4 hours	0.31	1.53	70.2
concentration: 33.6 (µM), S9 metabolic activation: without S9, exposure time: 24 hours	–	–	32.3
concentration: 41.9 (µM), S9 metabolic activation: with S9, exposure time: 3-4 hours	0.31	2.23	53.8
concentration: 41.9 (µM), S9 metabolic activation: without S9, exposure time: 24 hours	–	–	22.2
concentration: 52.4 (µM), S9 metabolic activation: with S9, exposure time: 3-4 hours	0.27	2.51	43.7
concentration: 52.4 (µM), S9 metabolic activation: without S9, exposure time: 24 hours	–	–	25.4
concentration: 65.5 (µM), S9 metabolic activation: with S9, exposure time: 3-4 hours	0.12	5.09	45.4
concentration: 65.5 (µM), S9 metabolic activation: without S9, exposure time: 24 hours	–	–	16.1
concentration: 81.9 (µM), S9 metabolic activation: with S9, exposure time: 3-4 hours	–	–	32.5
concentration: 81.9 (µM), S9 metabolic activation: without S9, exposure time: 24 hours	–	–	9.82
concentration: 102 (µM), S9 metabolic activation: with S9, exposure time: 3-4 hours	–	–	20.5
concentration: 102 (µM), S9 metabolic activation: without S9, exposure time: 24 hours	–	–	0.03
concentration: 128 (µM), S9 metabolic activation: with S9, exposure time: 3-4 hours	–	–	20.2
concentration: 200 (µM), S9 metabolic activation: with S9, exposure time: 3-4 hours	–	–	0.24
